Results on 89 compounds are retold here after PMC4336329 (PLoS ONE, 2015).

The campaign covered roughly 310,000 compounds. About 14,000 (4.5%) showed an effect of 50% or more. The effect is printed as a negative number. The list shows a part of the results.
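Further: peak tail current of the secondary pulse compared with the same well before compound.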

Sequence of human ether-à-go-go-related gene (hERG) potassium channel (Q12809 whole entry, looked up): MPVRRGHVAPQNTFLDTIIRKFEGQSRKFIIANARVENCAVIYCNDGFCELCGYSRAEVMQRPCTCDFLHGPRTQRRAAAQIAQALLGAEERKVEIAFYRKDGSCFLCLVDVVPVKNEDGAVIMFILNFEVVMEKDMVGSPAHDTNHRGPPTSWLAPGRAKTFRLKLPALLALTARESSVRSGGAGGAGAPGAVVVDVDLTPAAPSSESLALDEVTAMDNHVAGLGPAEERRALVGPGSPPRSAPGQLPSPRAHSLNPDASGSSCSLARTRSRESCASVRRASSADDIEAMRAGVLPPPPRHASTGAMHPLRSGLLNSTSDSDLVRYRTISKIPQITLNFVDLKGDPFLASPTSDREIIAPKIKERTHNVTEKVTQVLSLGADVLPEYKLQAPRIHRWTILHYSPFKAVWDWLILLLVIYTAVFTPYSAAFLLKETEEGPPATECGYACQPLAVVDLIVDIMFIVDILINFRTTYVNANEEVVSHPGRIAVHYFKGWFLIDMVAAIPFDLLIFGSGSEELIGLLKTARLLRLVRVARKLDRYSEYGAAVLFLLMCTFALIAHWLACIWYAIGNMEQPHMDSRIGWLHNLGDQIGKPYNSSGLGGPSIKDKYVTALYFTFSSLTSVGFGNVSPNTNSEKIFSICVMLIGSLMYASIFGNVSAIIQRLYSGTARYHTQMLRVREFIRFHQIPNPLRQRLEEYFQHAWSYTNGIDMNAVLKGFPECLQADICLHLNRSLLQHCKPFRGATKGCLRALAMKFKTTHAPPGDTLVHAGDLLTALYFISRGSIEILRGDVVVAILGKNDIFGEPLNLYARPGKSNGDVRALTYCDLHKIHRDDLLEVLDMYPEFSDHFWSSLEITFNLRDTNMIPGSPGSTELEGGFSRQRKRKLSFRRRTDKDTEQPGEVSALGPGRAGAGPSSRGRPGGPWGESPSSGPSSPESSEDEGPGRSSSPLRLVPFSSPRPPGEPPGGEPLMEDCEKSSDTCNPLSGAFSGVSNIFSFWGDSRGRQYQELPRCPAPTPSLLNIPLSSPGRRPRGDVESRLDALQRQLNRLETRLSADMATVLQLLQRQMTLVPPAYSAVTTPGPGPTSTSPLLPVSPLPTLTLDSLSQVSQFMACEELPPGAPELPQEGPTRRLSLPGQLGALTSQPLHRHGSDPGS

This experiment addresses human ether-à-go-go-related gene (hERG) potassium channel (human, UniProt Q12809). Kind of experiment: primary screen, population patch clamp on CHO cells stably expressing hERG.
Consider `O=c1[nH]c(/C=C/c2ccccc2Cl)c([N+](=O)[O-])c(=O)[nH]1`, for which the “hERG current change (%, negative = inhibition) at 10uM” value is 7.06%.
With `Cc1ccc(CC(=O)Nc2cccc(C#N)c2)cc1`, the “hERG current change (%, negative = inhibition) at 10uM” value was determined as 7.1%.
Take `O=C1NC(=Nc2ccccc2Cl)S/C1=C\c1ccc(C(=O)O)cc1`: the “hERG current change (%, negative = inhibition) at 10uM” value is 12.4%.
Then `CN1CCN(S(=O)(=O)c2ccc(N3CCN(c4ccccc4Cl)CC3)nc2)CC1`, with 7.3%.
Then `COCCNC(=S)N(Cc1cc2cc(C)ccc2n2nnnc12)C1CCCC1`, with 12.6%; and `Cc1ccc(NC(=O)CNS(=O)(=O)c2cccs2)cc1F`, with -9.47%.
On to `O=C(NC(=S)Nc1ccccc1O)c1ccc(Cl)cc1Cl`, for which the “hERG current change (%, negative = inhibition) at 10uM” value is listed as 14.1%.
With `CCN(CC)S(=O)(=O)c1ccc2c(c1)N(CC(=O)Nc1ccc(NC(C)=O)cc1)C(=O)CO2`, the “hERG current change (%, negative = inhibition) at 10uM” value came to 10%.
Turning to `O=c1c2ccccc2ncn1CCCCOc1ccc(Br)cc1`, the “hERG current change (%, negative = inhibition) at 10uM” value is -19.1%.
As to `CC(Oc1ccc(Cl)cc1)/C(N)=N/O.Cl` (centres unmarked), the “hERG current change (%, negative = inhibition) at 10uM” value is -3.34%.
Turning to `Cn1c(CCN2CCN(c3ccc(F)cc3)CC2)nc2cc(NC(=O)c3ccco3)ccc21`, the “hERG current change (%, negative = inhibition) at 10uM” value is -63.6%.
Regarding `O=C(NCCc1nnc2ccc(NCCCN3CCOCC3)nn12)c1ccccc1`, the “hERG current change (%, negative = inhibition) at 10uM” value was 1.8%.
With `OC(c1cccs1)(c1cccs1)C1C[N+]2(CF)CCC1CC2.[Cl-]` (centres unmarked), the “hERG current change (%, negative = inhibition) at 10uM” value was determined as 4.96%.
For `CCOC(=O)N1CCN(C(=O)CSCc2ccc(C)cc2)CC1`, the “hERG current change (%, negative = inhibition) at 10uM” value is listed as -4.51%.
Consider `O=C1CC(N(CCc2ccccc2)C(=S)Nc2cc(Cl)ccc2Cl)C(=O)N1c1c(Cl)cccc1Cl` (centres unmarked), for which the “hERG current change (%, negative = inhibition) at 10uM” value is on record as 8.12%.
As to `O=C(NCCCN1CCCC1=O)c1cccc(S(=O)(=O)NCc2ccccc2)c1`, the “hERG current change (%, negative = inhibition) at 10uM” value is -5.36%.
As for `Cn1cc(C(=O)N2CCN(c3ccccc3)CC2)c(=O)c2cc(S(=O)(=O)N3CCCC3)ccc21`, the “hERG current change (%, negative = inhibition) at 10uM” value was 9.41%.
For `COC(=O)CNC(=O)CSc1ccccn1`, the “hERG current change (%, negative = inhibition) at 10uM” value was -4.73%.
For `COc1ccc(C(=O)NCCN=C2NS(=O)(=O)c3ccccc32)cc1`, the “hERG current change (%, negative = inhibition) at 10uM” value is 13.5%.
Then `Nc1nonc1-c1nc2ccccc2n1Cc1ccccc1`, with -7.37%; and `COc1cc(COCC(O)CN2CCN(Cc3ccccc3)CC2)cc(OC)c1OC.Cl` (centres unmarked), with -39.1%.
Turning to `C=CCn1c(CNC(=O)c2ccco2)nnc1SCC(=O)c1ccc(F)cc1`, the “hERG current change (%, negative = inhibition) at 10uM” value is recorded as -15%.
In the case of `O=C(NCCO)C(=O)c1c(-c2ccc(Cl)cc2)cc2ccccn12` it was 10.8%; in that of `O=C(c1ccc(Cl)cc1)N1CCN(c2ccc([N+](=O)[O-])c(NCc3cccnc3)c2)CC1`, -50.1%.
`O=C(O)CCS(=O)(=O)Cc1cccc(Cl)c1`: the “hERG current change (%, negative = inhibition) at 10uM” value is listed as -4.26%.
For `Fc1ccccc1NC(=S)NCc1ccccc1`, the “hERG current change (%, negative = inhibition) at 10uM” value was found to be 2.89%.
With `CS(=O)(=O)N(Cc1ccc(C(=O)NN=C2CCCC2)cc1)c1ccccc1`, the “hERG current change (%, negative = inhibition) at 10uM” value is 8.63%.
Then `O=S(=O)(Cc1cc(Cl)nc(-c2ccncc2)n1)c1ccccc1`, with -10.7%; and `CC(=O)N1CN(Cc2ccccn2)Cc2c1sc1c2CCCC1`, with -17.6%; and `Cc1cccc(C(=O)Nc2nnc(-c3ccncc3)o2)c1`, with -23.6%.
Regarding `COc1cccc2c(Nc3ccccc3C)cc(C)nc12.Cl`, the “hERG current change (%, negative = inhibition) at 10uM” value is -44.5%.
Turning to `Cc1cc(NS(=O)(=O)c2ccc(NC(=O)/C=C/c3ccccc3)cc2)no1`, the “hERG current change (%, negative = inhibition) at 10uM” value is on record as 16.5%.
`C/C(=N\NC(=O)CC1(C)OCCO1)c1cccs1`: the “hERG current change (%, negative = inhibition) at 10uM” value was found to be 14.5%.
As for `CC1(Cc2ccc3c(c2)OCO3)NC(=O)NC1=O` (centres unmarked), the “hERG current change (%, negative = inhibition) at 10uM” value is on record as 14.8%.
In the case of `O=C(CN1C(=O)c2ccccc2C1=O)Nc1sc2c(c1C(=O)NCc1ccco1)CCCC2` it was -4.71%; in that of `CCOC(=O)c1cnc2c(C)c(Cl)ccc2c1N1CCN(CC)CC1.Cl`, -29.5%.
Take `N#Cc1ccc(C(=O)N/N=C/c2cn(CC(=O)O)c3ccccc23)c(F)c1`: the “hERG current change (%, negative = inhibition) at 10uM” value is listed as -1.39%.
On to `Cc1cc(C(=O)CSc2nc(N)cc(N)n2)c(C)n1CCc1ccc(F)cc1`, for which the “hERG current change (%, negative = inhibition) at 10uM” value was -13.9%.
In the case of `Cc1nc(Cl)c(C(=O)NC(=O)NCc2ccccc2)c(C)c1Cl` it was -6.08%.
Then `Cc1n(CC(=O)c2ccc(F)cc2)c2ccccc2[n+]1C.[Br-]`, with 13.5%; and `COc1cccc(C2CC(c3ccccc3Cl)n3ncnc3N2)c1` (centres unmarked), with -14.2%.
On to `Cc1sccc1C1C(C#N)=C(N)SC(N)=C1C#N`, for which the “hERG current change (%, negative = inhibition) at 10uM” value turned out to be 14.4%.
On to `CCc1cc(OCCCCNCc2ccccc2)ccc1Cl.O=C(O)C(=O)O`, for which the “hERG current change (%, negative = inhibition) at 10uM” value is on record as -25.6%.
Consider `COc1ccc(NC(=S)NCCc2ccccc2)c(OC)c1`, for which the “hERG current change (%, negative = inhibition) at 10uM” value is reported as -0.888%.
With `Cc1cc(OC(C)C(=O)N(Cc2ccco2)C2CCS(=O)(=O)C2)cc(C)c1Cl` (centres unmarked), the “hERG current change (%, negative = inhibition) at 10uM” value is listed as -1.99%.
As to `CCN(CC)C(=O)c1ccc(NC(=O)CSc2nnnn2-c2cc(OC)ccc2OC)cc1`, the “hERG current change (%, negative = inhibition) at 10uM” value was found to be 16.9%.
Take `Cc1nnc2sc(SCC(=O)Nc3ccc(Cl)cc3)nn2c1=O`: the “hERG current change (%, negative = inhibition) at 10uM” value was 13.2%.
Regarding `CCc1c(C(=O)N/N=C/c2cn[nH]c2-c2ccc(F)cc2)csc1C`, the “hERG current change (%, negative = inhibition) at 10uM” value is listed as -18.5%.
For `Cc1ncsc1CCC(=O)N1CCCC(C(=O)c2cccc(Cl)c2)C1` (centres unmarked), the “hERG current change (%, negative = inhibition) at 10uM” value is reported as -1.87%.
Take `Cc1cccc(NC(=O)COC(=O)c2ccc([N+](=O)[O-])o2)c1C`: the “hERG current change (%, negative = inhibition) at 10uM” value is 8.7%.
On to `O=C1C2C3C=CC(C3)C2C(=O)N1c1ccc(Cc2ccncc2)cc1` (centres unmarked), for which the “hERG current change (%, negative = inhibition) at 10uM” value is listed as -0.768%.
For the compound `O=[N+]([O-])c1cccnc1NCCNc1ncc(C(F)(F)F)cc1Cl`, the “hERG current change (%, negative = inhibition) at 10uM” value is 13.6%.
On to `O=C(Nc1cccc(S(=O)(=O)Nc2ccc(Cl)cc2)c1)c1ccc(Cl)nc1`, for which the “hERG current change (%, negative = inhibition) at 10uM” value is given as 19.8%.
Regarding `CCC(C)NC(=S)N(CCc1ccccc1)Cc1cc2cc(OC)c(OC)cc2[nH]c1=O` (centres unmarked), the “hERG current change (%, negative = inhibition) at 10uM” value was -32.4%.
As to `Cc1sc2nc(CC(=O)N3CCCC3)[nH]c(=O)c2c1C`, the “hERG current change (%, negative = inhibition) at 10uM” value turned out to be 3.32%.
For `O=C(N/C=N/O)C(c1ccccc1)c1ncc(C(F)(F)F)cc1Cl` (centres unmarked), the “hERG current change (%, negative = inhibition) at 10uM” value is on record as 3.35%.
Turning to `O=C1NC(=Nc2ccc(F)cc2)CS1`, the “hERG current change (%, negative = inhibition) at 10uM” value is 24.4%.
In the case of `Cc1cc(/C=N/NC(N)=O)c(C)n1-c1ccc(F)cc1` it was -2.06%; in that of `CCCSc1nc2c(cnn2-c2ccc(Cl)cc2)c(=O)[nH]1`, 14.8%; in that of `CCN1C(=O)c2ccccc2S(=O)c2ccc(C(=O)N3CCCC3)cc21` (centres unmarked), -2%.
In the case of `CCCn1c(N)c(N(CCOC)C(=O)/C=C/c2cccc(Cl)c2)c(=O)[nH]c1=O` it was 28%; in that of `COc1ccc(N2CC(C(=O)N/N=C/c3cc([N+](=O)[O-])ccc3O)CC2=O)cc1` (centres unmarked), -8.45%.
`O=C(NCCC1CCCCN1S(=O)(=O)c1ccc(F)cc1)C(=O)NC1CC1` (centres unmarked): the “hERG current change (%, negative = inhibition) at 10uM” value is -13.9%.
Consider `COc1ccc(CN2CCNC(=O)C2CC(=O)NC2CCCCCC2)cc1C` (centres unmarked), for which the “hERG current change (%, negative = inhibition) at 10uM” value is given as -5.91%.
Then `COc1cc(O)c(C(CCN2CCCC2)c2ccc3c(c2)OCO3)c(OC)c1` (centres unmarked), with -72.5%; and `Cc1cccc(/C=N/NC(=O)NC2CCCCC2)c1`, with 14%; and `CC1=NN(C(C#N)c2ccccc2)C(c2ccccc2)C1` (centres unmarked), with 3.71%.
In the case of `O=C(CN(c1ccccc1)S(=O)(=O)c1ccc(F)cc1)NCc1cccs1`, the “hERG current change (%, negative = inhibition) at 10uM” value worked out at 7.09%.
As for `O=C1/C(=C/c2cccnc2)N2CCC1CC2`, the “hERG current change (%, negative = inhibition) at 10uM” value is recorded as 34.6%.
For the compound `O=C(COC(=O)C1CCC1)c1c[nH]c2ccccc12`, the “hERG current change (%, negative = inhibition) at 10uM” value amounted to 0.941%.
Regarding `CCCCCCc1nc2ccccc2c(=O)n1N`, the “hERG current change (%, negative = inhibition) at 10uM” value is recorded as -6.75%.
Regarding `Cc1ccc(CC(=O)Nc2ccc(C(=O)N3CCOCC3)cc2)cc1`, the “hERG current change (%, negative = inhibition) at 10uM” value was -20.7%.
With `CN(C(=O)CSc1nnc(-c2n[nH]c3ccccc23)o1)c1ccccc1`, the “hERG current change (%, negative = inhibition) at 10uM” value was 12%.
In the case of `CCCc1nc2sc(C(=O)OCC)c(N)c2c2c1COC(C)(C)C2` it was -3.77%; in that of `COC(=O)c1ccc(S(=O)(=O)N2CCCCCC2)cc1`, -5.64%.
In the case of `Cc1cccc(C)c1NC(=O)C1CC2CCC1C2` (centres unmarked), the “hERG current change (%, negative = inhibition) at 10uM” value was determined as 22.1%.
In the case of `CN(C)C(=O)[C@H]1C[C@H]1[C@@H](O)[C@H](CO)NC(=O)[C@H](Cc1ccccc1)NC(=O)OC(C)(C)C` it was 1.91%; in that of `COc1ccc(S(=O)(=O)NCC2CCCO2)cc1C(=O)O` (centres unmarked), 17.7%; in that of `CCOCCCNC1=C(Cl)C(=O)c2ccccc2C1=O`, 1.61%.
With `O=C(c1ccccc1)N1N=C(c2ccco2)CC1c1cccs1` (centres unmarked), the “hERG current change (%, negative = inhibition) at 10uM” value is given as -14.9%.
As for `O=C(O)COCC(=O)Nc1ccc2c(c1)CCC2`, the “hERG current change (%, negative = inhibition) at 10uM” value worked out at 14.7%.
`COc1ccc(NC(=O)N(CCO)Cc2cc3c(C)cc(C)cc3[nH]c2=O)cc1`: the “hERG current change (%, negative = inhibition) at 10uM” value was -15.3%.
Consider `COC(=O)c1ccc(NC(=O)CN(c2ccc(C)cc2)S(=O)(=O)c2c(C)nn(C)c2C)cc1`, for which the “hERG current change (%, negative = inhibition) at 10uM” value was 16.5%.
Consider `CCOC(=O)c1sc2ncnc(N3CCN(C(=O)OCC)CC3)c2c1C`, for which the “hERG current change (%, negative = inhibition) at 10uM” value is -53.4%.
On to `O=C(NC1CCCCC1)C12CC3CC(CC(Cl)(C3)C1)C2`, for which the “hERG current change (%, negative = inhibition) at 10uM” value is recorded as -8.27%.
`CC1(C(=O)N(CC(=O)NC2CCCC2)Cc2ccccc2)CC(=O)N=C2C=CC=CN21` (centres unmarked): the “hERG current change (%, negative = inhibition) at 10uM” value came to 17%.
Then `CC(=O)Nc1ccc(S(=O)(=O)NCc2nnnn2-c2ccc(F)cc2)cc1`, with 3.41%.
As to `Cc1ccc(C(=O)COC(=O)CCC(=O)NC2CCCCC2)cc1C`, the “hERG current change (%, negative = inhibition) at 10uM” value was found to be 14.8%.
In the case of `Fc1ccccc1CNc1cc(Cl)cc(Cl)c1` it was 15.2%.
